Target: human CD19, CD20 and CD22 on CD19+CD20+CD22+ tri-positive B lymphoma cells (Raji, Daudi) (human) (UniProt P15391)
Experiment: flow cytometry on Raji cells (CD19+CD20+CD22+), serial dilution of the mAb, detection with PE-conjugated mouse anti-human IgG1Fc, MFI

EC50 | Binder
94.5 nM | huAIO-467-huIgG1Fc mAb (Fc fusion) QVQLQESGPGLVKPSQTLSLTCTVSGASITTGEFYWNWFRQPPGKGLEWMGAIAASGSTTYSPSFESRTSISRDTSKNQFSLKLSSVTAADTAVYYCGRSFGVAAVTTGQNRGQGTLVTVSSGGGGSQVQLVESGGGLVQPGGSLRLSCAASGNINSRNCMGWFRQAPGKGREGVAAIGQVTGRSYYVDSVKGRFTISLDNSKNTLYLQMNSLRAEDTAVYYCAAAPGCLLSALRSADYRNWGQGTLVTVSSGGGGSQIQLVESGGGLVQPGGSLRLSCAASGFTFSNYPMTWLRQAPGKGLESVSDITSGGDRPYYADSVKGRFTISRDNAKNMLYLQMNSLRAEDTAVYYCATWDRTLTGQGTMVTVSS[in this place human IgG1 Fc]
88.2 nM | AIO-3C1-huIgG1Fc mAb (Fc fusion) VHH-VHH-VHH-Fc chain: EVQLVESGPGLVKPSQTLSLTCTVSGASITTGEFYWNWFRQPPGKGLEWMGAIAASGSTTYSPSFESRTSISRDTSENQFYLQLSSVTPEDTAVYYCGRSFGVAAVTTGQNRGQGTQVTVSSGGGGSQVQLVESGGGSVQAGGSLRLSCGASGNINSRNCMGWFRQAPGKEREGVAAIGQVTGRSYYVDSVKGRFTISLDNAKNTLYLQMNTLKPEDTAMYYCAAAPGCLLSALRSADYRNWGQGTQVTVSSGGGGSQIQLVESGGGLVQPGGSLRLSCAASGFTFSNYPMTWLRQAPGKGLESVSDITSGGDRPYYADSVKGRFTISRDNAKNMLYLEMNSLKTEDTAVYYCATWDRTLTGQGTQVTVSS[in this place human IgG1 Fc]
